Out of some 280,000 compounds screened, about 100 (0.036%) were called active. Inconclusive results, whose numbers are uncertain, are shown with a selection of clear calls. The call rests on the fitted dose curve; in most records, active means well fitted inhibition curve with a large enough effect in the signal ratio, with a control signal flat (not every such curve was filed as active); inconclusive means small, poorly fitted or top-dose-only effect, or effect the other way, or a change in a side signal; inactive means no such curve, though single readings can be large or run the other way; the % refers to the signal ratio. Potencies of inconclusive entries are doubtful fits and often do not repeat. A note “side channel” means that the fit belongs to a control or component signal, not to the main read-out.
molecular target: Muscleblind-like protein 1 (Homo sapiens) (UniProt Q9NR56); experiment: qHTS Assay for Inhibitors of MBNL1-poly(CUG) RNA binding; settings: TR-FRET MBNL1-His/biotin-(CUG)12 binding, 665/545 ratio; series mostly up to 57.5 µM
Chain of UniProt Q9NR56 (Q9NR56 whole entry, looked up): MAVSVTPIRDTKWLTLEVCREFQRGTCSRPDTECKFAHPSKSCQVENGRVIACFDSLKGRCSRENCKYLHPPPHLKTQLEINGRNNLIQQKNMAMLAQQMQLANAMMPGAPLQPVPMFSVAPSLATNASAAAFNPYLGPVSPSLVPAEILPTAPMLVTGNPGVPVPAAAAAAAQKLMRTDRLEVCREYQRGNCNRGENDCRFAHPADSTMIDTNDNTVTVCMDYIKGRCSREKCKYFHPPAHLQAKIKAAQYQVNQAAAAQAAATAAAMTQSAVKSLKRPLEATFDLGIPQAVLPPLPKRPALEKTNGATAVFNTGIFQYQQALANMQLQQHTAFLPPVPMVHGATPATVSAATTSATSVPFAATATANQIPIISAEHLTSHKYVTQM
Procedure, shortened: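 Inhibition of protein-RNA binding appears as loss of TR-FRET between terbium anti-His antibody on MBNL1-His and streptavidin-XL665 on biotin-(CUG)12. Activity is normalized to buffer-only and uninhibited-complex controls.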
Potency means the concentration at half of the fitted maximal effect; tags describe the fitted curve by direction and shape or compound fluorescence and quenching.

| SMILES | Potency |
| --- | --- |
| COc1ccc([N+](=O)[O-])cc1N(CC(=O)N(C)C)S(C)(=O)=O | inconclusive: 20 µM [quencher, side channel, single point] |
| Cc1cc(C)n(-c2ccc(S(=O)(=O)N3CCOCC3)cc2[N+](=O)[O-])n1 | inconclusive: 15.8 µM [quencher, partial curve] |
| CCOC(=O)C1CCN(c2cc(C)nc3ccc(OC)cc23)CC1 | inconclusive: 25.1 µM [quencher, side channel, single point] |
| CC(NC(=O)COc1cccnc1[N+](=O)[O-])c1ccc(F)cc1 (configuration not stated) | inconclusive: 25.1 µM [quencher, side channel, single point] |
| C/C(=N\Nc1nccnc1Cl)c1ccc([N+](=O)[O-])cc1 | inconclusive: 3.55 µM [quencher, side channel, full curve] |
| CC(C)OCCCn1c(=NC(=O)c2cccs2)c(C#N)cc2c(=O)n3ccccc3nc21 | inconclusive: 7.08 µM [quencher, side channel, partial curve] |
| Cc1ccc(NC(=O)CC2SC(=NCC3CCCO3)NC2=O)cc1Cl (configuration not stated) | inconclusive: 22.4 µM [fluorescent, side channel, partial curve] |
| N#C/C(=C\c1ccc(O)c([N+](=O)[O-])c1)C(=O)NCc1ccccc1 | inconclusive: 31.6 µM [quencher, side channel, single point] |
| CC1=C(C(N)=O)C(c2ccccn2)n2nc(-c3ccccc3Cl)nc2N1 (configuration not stated) | inconclusive: 25.1 µM [quencher, side channel, single point] |
| COc1ccc(N2CCN(CCNC(=O)CCS(=O)(=O)c3cccc4nsnc34)CC2)cc1 | inconclusive: 2.82 µM [quencher, partial curve] |
| Cc1cc(C(=O)Nc2ccccc2)oc(=O)c1 | inconclusive: 11.2 µM [quencher, side channel, partial curve] |
| COc1ccc(OC(C)C(=O)Nc2ccc([N+](=O)[O-])cc2)cc1 (configuration not stated) | inconclusive: 17.8 µM [quencher, side channel, partial curve] |
| Oc1ccc2ccccc2c1N=Nc1ccccn1 | inconclusive: 11.2 µM [quencher, side channel, partial curve] |
| O=C(NCc1cccnc1)c1ccc(NC(=O)c2cccc([N+](=O)[O-])c2)cc1 | inconclusive: 15.8 µM [quencher, side channel, partial curve] |
| NN1C(=O)/C(=C2/Sc3ccccc3N2CCCS(=O)(=O)O)SC1=S | inconclusive: 7.94 µM [quencher, side channel, partial curve] |
| COc1cccc(/C=N/NC(=O)CNC(=O)C2COc3ccccc3O2)c1O (configuration not stated) | inconclusive: 8.91 µM [quencher, side channel, partial curve] |
| Cc1ccsc1C1NC(=O)c2ccccc2N1 (configuration not stated) | inactive |
| O=C1OCC/C1=C\c1ccccc1O | inconclusive: 28.2 µM [quencher, side channel, single point] |
| CCOc1ccc(-c2cc(C)n3nc(C(N)=O)cc3n2)cc1 | inconclusive: 17.8 µM [quencher, side channel, partial curve] |

| SMILES | Potency |
| --- | --- |
| O=C(NC(=S)Nc1ccccc1N1CCOCC1)c1ccco1 | inactive |
| O=C(CSC1CS(=O)(=O)c2cc([N+](=O)[O-])ccc21)NNC(=O)c1ccc(Cl)cc1 (configuration not stated) | inconclusive: 17.8 µM [quencher, side channel, partial curve] |
| CSc1nnc2c3ccccc3n(CCc3ccccc3)c2n1 | inactive |
| Cn1c2ccccc2c2nnc(SCC(=O)NCc3ccoc3)nc21 | inconclusive: 20 µM [quencher, side channel, partial curve] |
| O=C1C(=O)N(c2ccccc2)C(c2ccccc2[N+](=O)[O-])/C1=C(\O)c1ccccc1 (configuration not stated) | inconclusive: 17.8 µM [quencher, side channel, partial curve] |
| O=S1(=O)CC/C(=N\Nc2ccccc2)c2ccsc21 | inconclusive: 31.6 µM [quencher, side channel, single point] |
| O=C(O)C(=O)/C(=C\c1ccsc1)c1ccc2ccccc2n1 | inconclusive: 22.4 µM [quencher, side channel, partial curve] |
| O=C(CCNS(=O)(=O)c1cccc2nsnc12)NC1CCN(Cc2ccccc2)CC1 | inconclusive: 14.1 µM [quencher, side channel, partial curve] |
| O=C(CSc1ccc([N+](=O)[O-])cn1)Nc1ccccc1N1CCOCC1 | inconclusive: 12.6 µM [quencher, side channel, partial curve] |
| O=C1CCCN1CCCNc1ccc2nnc(CCC(=O)N3CCN(c4ccc(F)cc4)CC3)n2n1 | inactive |
| COc1ccc(/C=C2\SC(N3CCc4ccccc4C3)=NC2=O)cc1 | inconclusive: 35.5 µM [quencher, side channel, single point] |
| O=C(OCC(=O)N1CCCC1=O)c1cccc([N+](=O)[O-])c1 | inconclusive: 15.8 µM [quencher, side channel, partial curve] |
| COc1ccc(NC(=S)/N=C(\N)Nc2nc(C)c3ccc(C)cc3n2)cc1 | inactive |
| Cc1cc(Cl)ccc1OCC(=O)Nc1ccccc1N1CCOCC1 | inactive |
| Cc1c(NC(=S)N/N=C/C=C/c2ccccc2)c(=O)n(-c2ccccc2)n1C | inconclusive: 44.7 µM [quencher, side channel, partial curve] |
| COc1ccccc1N1CCN(C(=O)/C=C/c2cccs2)CC1 | inconclusive: 12.6 µM [quencher, side channel, single point] |
| CCOC(=O)N=S(=O)(Oc1ccc([N+](=O)[O-])cc1)c1ccc(Cl)cc1 (configuration not stated) | inconclusive: 12.6 µM [quencher, side channel, partial curve] |
| Cc1sc(NC(=O)CN2CCN(c3ccccn3)CC2)c(C#N)c1C | inconclusive: 3.16 µM [quencher, side channel, partial curve] |
